Measurements from PubChem BioAssay AID624417 (National Center for Advancing Translational Sciences (NCATS), 2012).
Hit rate of the full screen: of about 410,000 compounds, about 6,400 (1.6%) were called active. The shares of active, inactive and inconclusive entries below differ from those in the screen. Calls follow the shape of the dose curve; as a rule, active = well fitted inhibition curve with a large enough effect; inconclusive = small, poorly fitted or top-dose-only effect; inactive = no such curve, though single readings can be large or run the other way. Potencies of inconclusive entries are doubtful fits and often do not repeat.

Target: Glucagon-like peptide 1 receptor (Homo sapiens) (UniProt P43220)
Test: qHTS of GLP-1 Receptor Inverse Agonists (Inhibition Mode); also: nearly all actives have a fitted effect of over 55% in size
Details: HEK293 GLP-1R CRE-luciferase, luminescence, 24 h, GLP-1R form is constitutively active; activity change, negative = inhibition: at 38.3 µM (top of the series) unless noted
Summary of the method: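 HEK293 cells stably co-expressing a cAMP-responsive luciferase reporter and constitutively active GLP-1R were seeded, incubated 12 h, then exposed to compounds for 24 h at 37 C. Luminescence was read 12 min after detection reagent; inverse agonists lower signal.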
% is scaled to controls: 0 for no effect and ±100 for the full control effect; potency is read from the fitted curve at half-maximal effect; tags tell the direction and shape of the fitted curve.

Chain of UniProt P43220 (P43220 whole entry, looked up): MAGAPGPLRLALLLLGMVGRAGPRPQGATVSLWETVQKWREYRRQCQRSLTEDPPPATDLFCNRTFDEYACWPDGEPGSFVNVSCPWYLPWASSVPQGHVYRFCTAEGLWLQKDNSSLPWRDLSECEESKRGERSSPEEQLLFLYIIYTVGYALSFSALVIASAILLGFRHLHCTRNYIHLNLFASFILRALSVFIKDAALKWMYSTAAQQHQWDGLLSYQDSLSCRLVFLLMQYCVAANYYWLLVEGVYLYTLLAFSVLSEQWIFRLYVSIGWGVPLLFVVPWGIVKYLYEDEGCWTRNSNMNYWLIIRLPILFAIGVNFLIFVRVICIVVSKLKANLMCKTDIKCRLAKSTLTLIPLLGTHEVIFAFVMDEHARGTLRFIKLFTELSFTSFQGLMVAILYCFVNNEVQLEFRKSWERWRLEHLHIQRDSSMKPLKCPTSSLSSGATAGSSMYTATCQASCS

Potency, inconclusive:
COc1cc(OC)cc(-c2c(-c3cccs3)c3cc(-c4ccc5cc[nH]c5c4)ccc3n2C)c1 3.55 µM [inhibitor, full curve, poor fit]
CCCCCCCCN1C(=O)[C@H](CC(=O)NCc2ccc(OC)c(OC)c2)C[C@@]2(C(=O)OCC)CCC=C12 17.8 µM [inhibitor, partial curve, poor fit]
O=C(CN1CCN(S(=O)(=O)c2ccc(F)cc2)CC1)Nc1ccc(Cl)c(C(F)(F)F)c1 11.2 µM [inhibitor, partial curve, poor fit]
COc1ccccc1N(CC(=O)N1CCCCC1C)S(=O)(=O)c1ccc(Cl)cc1 (stereo not drawn) 11.2 µM [inhibitor, single point]
CSC(C(=O)c1cc2ccccc2o1)c1ccccc1 (stereo not drawn) 2 µM [inhibitor, partial curve, poor fit]
C[C@@H](c1ccccc1)N1C[C@H](COCc2ccccc2)Oc2cc(N3CCC[C@@H]3CO)ccc2S1(=O)=O 8.91 µM [inhibitor, partial curve, poor fit]
CC(=O)Nc1ccc(-c2ccnc3c2CC(C(=O)Nc2cccc(C(C)=O)c2)O3)cc1 (stereo not drawn) 12.6 µM [inhibitor, single point]
CC(=O)Nc1ccc(C(=O)N2CCCCC2c2cc(C(=O)Nc3cccc4c3CCCC4)no2)cc1 (stereo not drawn) 12.6 µM [inhibitor, partial curve, poor fit]
CN(CC(=O)Nc1ccc(Cl)c(C(F)(F)F)c1)CC(=O)NC1CCCCC1 7.08 µM [inhibitor, partial curve, poor fit]
CC1=C(C(=O)OCC(C)C)C(c2ccc(Br)s2)NC(=O)N1 (stereo not drawn) 14.1 µM [inhibitor, single point]
COc1ccc2c(C#N)c3ccccn3c2c1 6.31 µM [inhibitor, partial curve]
FC(F)C(F)(F)c1cc(-c2ccc(Cl)cc2)n[nH]1 12.6 µM [inhibitor, partial curve, poor fit]
CC(C)N(C(=O)CSc1nc(COc2ccccc2)nc2ccccc12)C(C)C 3.16 µM [inhibitor, partial curve, poor fit]
Cc1nn(-c2ccccc2)c2c1/C(=N/O)CC(C)(C)C2 10 µM [inhibitor, partial curve, poor fit]
COCCNC(=S)N/N=C(\C)c1ccccc1OC 8.91 µM [inhibitor, partial curve, poor fit]
C=C(C)Cn1c(-c2ccccc2)nc2ccccc21 11.2 µM [inhibitor, partial curve, poor fit]
O=C(c1ccccc1NS(=O)(=O)c1ccc(Br)s1)N1CCCC1 28.2 µM [inhibitor, single point]
O=C(c1cc2cc(Br)ccc2o1)N1CCCCC1 28.2 µM [inhibitor, single point]
COc1ccc(Br)c(C(=O)OCC(=O)NC2CCCCCC2)c1 28.2 µM [inhibitor, single point]
O=C(CCc1cn(Cc2ccc(F)cc2)c2ccccc12)N1CCOCC1 22.4 µM [inhibitor, single point]
C=CCc1c(C)nc(SC)nc1Nc1ccccc1 0.501 µM [inhibitor, full curve, poor fit]
COc1ccc(CCN(C)C(=O)C23CC4CC(CC(Cl)(C4)C2)C3)cc1OC 10 µM [inhibitor, single point]
CC(C)CCNc1ncnc2c1cnn2-c1cccc(Cl)c1 10 µM [inhibitor, partial curve]
CSc1ccc(/C=C/C(=O)OCC(=O)N2CCCCCC2)cc1 28.2 µM [inhibitor, single point]
CCN(CC)CC(O)CNc1ccnc2c(Cl)ccc(Cl)c12 (stereo not drawn) 10 µM [inhibitor, partial curve]
CC1CCCN(S(=O)(=O)c2ccc(NC(=O)CNC3CCCC3)cc2)C1 (stereo not drawn) 25.1 µM [inhibitor, partial curve, poor fit]
CCN(CC)CCN(C(=O)c1ccc(C(=O)OC)cc1)c1nc2ccc(Cl)cc2s1 10 µM [inhibitor, partial curve, poor fit]
CCCOC(=O)c1ccc(NC(=O)c2ccoc2C)cc1 28.2 µM [inhibitor, single point]
CNC(=S)Nc1ccc(N2CCCC2)c(S(=O)(=O)Nc2ccc(OC)cc2)c1 12.6 µM [inhibitor, single point]
CSc1ccc(CN2CCC(CO)(CCOc3ccccc3)CC2)cc1 11.2 µM [inhibitor, partial curve, poor fit]
Cc1cnc(NC(=O)CSc2c(Cl)cccc2Cl)s1 31.6 µM [inhibitor, partial curve, poor fit]
CSc1ccc(Cn2c(C)c(C(=O)NCc3ccc4c(c3)OCO4)sc2=O)cc1 22.4 µM [inhibitor, single point]
CC(C)c1ccc(S(=O)(=O)Nc2ccc(O)c(Sc3nc4ccccc4s3)c2)cc1 28.2 µM [inhibitor, single point]
CC[C@]12CCCN3CCc4c(n(c5ccccc45)C(=O)C1)C32 (stereo partly drawn) 20 µM [inhibitor, single point]
CC12CCC(C1)C(C)(C)C2NS(=O)(=O)c1ccc(F)cc1 (stereo not drawn) 12.6 µM [inhibitor, partial curve, poor fit]
CCOc1c(Br)cc(C(=O)Nc2cccc(S(=O)(=O)N3CCOCC3)c2)cc1OC 28.2 µM [inhibitor, single point]
CCCC(O)(c1ccc(OC)cc1)C(CN1CCOCC1)c1ccc(Cl)cc1 (stereo not drawn) 12.6 µM [inhibitor, single point]
CC1(C)CC(=O)c2c(O)c(-c3ccccc3)c(=O)n(-c3ccccc3)c2C1 20 µM [inhibitor, single point]
O=S(=O)(NCC1CC1)c1cc(Cl)cc(Cl)c1 7.08 µM [inhibitor, partial curve, poor fit]
COc1ccc(CN2CCN(Cc3c[nH]c4ccccc34)CC2CCO)c(F)c1 (stereo not drawn) 4.47 µM [inhibitor, full curve, poor fit]
CN(Cc1ccccc1)C(=O)C1CCC(CNS(=O)(=O)c2cccc3cccnc23)CC1 (stereo not drawn) 28.2 µM [inhibitor, single point]
COc1cccc2sc3cc(NCC[C@@H]4CCCN4C)ccc3c(=O)c12 28.2 µM [inhibitor, single point]
COc1ccc(C(=O)Nc2ccccc2C(=O)O)cc1NC(=O)C(c1ccccc1)c1ccccc1 8.91 µM [inhibitor, partial curve, poor fit]
O=C(Cc1ccc(Cl)cc1)NCCS(=O)(=O)N1CCN(c2ccccc2)CC1 3.55 µM [inhibitor, partial curve, poor fit]
CCOc1ccc(OCc2ccc(C(=O)Nc3cccnc3)cc2)cc1 7.94 µM [inhibitor, partial curve, poor fit]
Cc1ccc2[nH]c(C(=O)NCCN3CCCC3)cc2c1 22.4 µM [inhibitor, partial curve, poor fit]
COc1cc2c(=O)c(S(=O)(=O)c3ccc(C)cc3)cn(Cc3cccc(C)c3)c2cc1OC 8.91 µM [inhibitor, partial curve, poor fit]
Cc1onc(-c2c(Cl)cccc2Cl)c1C(=O)N1CCN(c2ccccc2)CC1 5.62 µM [inhibitor, partial curve, poor fit]

Potency, active:
Cc1ccc(S(=O)(=O)N(Cc2ccccc2)c2ccccc2C(=O)Nc2ccccc2C(=O)NCc2ccco2)cc1 5.01 µM
CN(C)c1ccc(C2CNC(c3ccc(Cl)c([N+](=O)[O-])c3)c3[nH]c4ccccc4c32)cc1 (stereo not drawn) 4.47 µM
Cc1cccc(CS(=O)(=O)c2ncc(Cl)c(C(=O)NCc3ccc4c(c3)OCO4)n2)c1 8.91 µM

Activity change, negative = inhibition, inactive:
CSCc1ccc(C(=O)Nc2ccc(C(N)=O)cc2)cc1 11.5%
CC(C)C(NC(=O)CCNC(=O)c1ccc([N+](=O)[O-])cc1)c1nc2ccccc2[nH]1 (stereo not drawn) 2.49%
CC(=O)c1cccc(NC(=O)N2CCC(CN3CCCCC3)CC2)c1 7.91%
CCOc1ccccc1NC(=O)CN1C(=O)C2(SCC(=O)N2c2ccc(C)cc2)c2ccccc21 (stereo not drawn) 5.16%
CC(=O)c1ccc(OC2(C)CCN(Cc3ccc(C)cc3)C2)cc1 (stereo not drawn) 20.7%
COCCNC(=O)C(=O)NCC(c1cccnc1)N1CCN(c2ccccc2)CC1 (stereo not drawn) 2.79%
NS(=O)(=O)c1cccc(NC(=O)COC(=O)CCSc2ccccc2)c1 9.79%
O=C(c1cccc(S(=O)(=O)N2CCOCC2)c1)N1CCN(C/C=C/c2ccccc2)CC1 -21.1%
Cc1sc2ncnc(N3CCC(C(=O)Nc4nc(-c5cccs5)cs4)CC3)c2c1C -14.2%
O=C1C(Cl)=C(N2CCN(c3ccccc3[N+](=O)[O-])CC2)C(=O)c2ccccc21 67.2%
CC(C)(O)c1cc2ccc(C#CCCN3C(=O)c4ccccc4C3=O)cc2c(=O)o1 39.5%
CCOc1ccccc1NC(=O)NCCN1CCCCC1 -1.51%
